Test results published in publication PMC3087822 (Nature structural & molecular biology, 2011).

B1: syntaxin-1 SNARE motif ([…]) (domain or fragment)
chain: not shown
B2: synaptobrevin([…]) (S61C), BODIPY-labeled (domain or fragment)
chain: not shown
modifications: BODIPY fluorescence donor (Bodipy-FL-maleimide) on residue 61

Experiments:
[1] = target: rat Munc13-1(859–1407,1453–1531) fragment (MUN*) (rat, UniProt Q62768 859-1531, Munc13-1(859–1407,1453–1531)); assay: NMR titration
[2] = target: rat synaptobrevin-2 (residues 29–93) (rat, UniProt P63045 partial chain); assay: assembly and ultrafiltration
[3] = target: human SNAP25 (residues 11–82) (human, UniProt P60880 11-82); assay: assembly and ultrafiltration
[4] = target: syntaxin-1A(2–253) (R210E, C145S, S249C), rhodamine-labeled (rat, UniProt P32851, R210E | C145S | S249C); assay: FRET or BRET
[5] = target: syntaxin-1A(2–253) (C145S, S249C), rhodamine-labeled (rat, UniProt P32851, C145S | S249C); assay: FRET or BRET

Binder | Kd [1] | binding result [2] | binding result [3] | binding result [4] | binding result [5]
B1 | 46 ± 20 µM | binds | binds |  | 
B2 |  |  |  | binds | binds
